# Test results from the supplement of paper PMC8728848.
# Some of the results follow.
# B1: UEA-I (Ulex europaeus), P22972 (protein)
# chain: SDDLSFKFKNFSQNGKDLSFQGDASVIETGVLQLNKVGNNLPDETGGIARYIAPIHIWNCNTGEVASFITSFSFFMETSANPKAATDGLTFFLAPPDSPLRRAGGYFGLFEDTKDNDSSYQTVAVEFDTIGSPVNFDDPGFPHIGIDVNRVKSINAERWNKRYGLNNVANVEIIYEASSKTLTASLTYPSDQTSISVTSIVDLKEILPEWVSVGFSGGTYIGRQATHEVLNWYFTSNLIN
# Tests used:
# Test in all cases: glycan array binding signal (z-score within array); higher = stronger binding
# Settings in all cases: glycan notation: IUPAC condensed, linker removed
# [1] = biological target: Gal(b1-4)GlcNAc(b1-3)[Gal(b1-4)GlcNAc(b1-6)]GalNAc
# In short: (§1)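 Columns mapping to the same glycan were averaged after glycan names were converted to IUPAC-condensed notation. The data come from 3228 arrays in the Consortium for Functional Glycomics database, limited to those with an available protein sequence. Binding is reported as a within-array Z-score averaged across arrays of one protein sequence and across linkers.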
# [2] = biological target: Gal(b1-4)GlcNAc(b1-3)[GlcNAc(b1-6)]Gal(b1-4)GlcNAc
# In short: as §1
# [3] = biological target: Gal(b1-4)GlcNAc(b1-6)Gal(b1-4)GlcNAc
# In short: as §1
# [4] = biological target: Gal(b1-4)GlcNAc(b1-6)GalNAc
# In short: as §1
# [5] = biological target: Gal(b1-4)GlcNAc(b1-6)[Gal(b1-3)]GalNAc
# In short: as §1
# Gal(b1-6)Gal = biological target: Gal(b1-6)Gal
# In short: as §1
# Gal3S(b1-3)GalNAc = biological target: Gal3S(b1-3)GalNAc
# In short: as §1
# Gal3S(b1-3)GlcNAc = biological target: Gal3S(b1-3)GlcNAc
# In short: as §1
# [6] = biological target: Gal3S(b1-3)[Fuc(a1-4)]GlcNAc
# In short: as §1
# Gal3S(b1-4)Glc = biological target: Gal3S(b1-4)Glc
# In short: as §1
# Gal3S(b1-4)Glc6S = biological target: Gal3S(b1-4)Glc6S
# In short: as §1
# Gal3S(b1-4)GlcNAc = biological target: Gal3S(b1-4)GlcNAc
# In short: as §1
# Gal3S(b1-4)GlcNAc6S = biological target: Gal3S(b1-4)GlcNAc6S
# In short: as §1
# [7] = biological target: Gal3S(b1-4)[Fuc(a1-3)]Glc
# In short: as §1
# [8] = biological target: Gal3S(b1-4)[Fuc(a1-3)]Glc6S
# In short: as §1
# Gal3S4S(b1-4)GlcNAc = biological target: Gal3S4S(b1-4)GlcNAc
# In short: as §1
# Gal3S6S(b1-4)GlcNAc = biological target: Gal3S6S(b1-4)GlcNAc
# In short: as §1
# Gal3S6S(b1-4)GlcNAc6S = biological target: Gal3S6S(b1-4)GlcNAc6S
# In short: as §1
# Gal4S(b1-4)GlcNAc = biological target: Gal4S(b1-4)GlcNAc
# In short: as §1
# Gal4S6S(b1-4)GlcNAc = biological target: Gal4S6S(b1-4)GlcNAc
# In short: as §1
# Gal6S(b1-3)GlcNAc = biological target: Gal6S(b1-3)GlcNAc
# In short: as §1
# Gal6S(b1-3)GlcNAc6S = biological target: Gal6S(b1-3)GlcNAc6S
# In short: as §1
# Gal6S(b1-4)Glc = biological target: Gal6S(b1-4)Glc
# In short: as §1
# Gal6S(b1-4)Glc6S = biological target: Gal6S(b1-4)Glc6S
# In short: as §1
# Gal6S(b1-4)GlcNAc = biological target: Gal6S(b1-4)GlcNAc
# In short: as §1
# Gal6S(b1-4)GlcNAc6S = biological target: Gal6S(b1-4)GlcNAc6S
# In short: as §1
# GalNAc(a1-3)Gal = biological target: GalNAc(a1-3)Gal
# In short: as §1
# GalNAc(a1-3)GalNAc = biological target: GalNAc(a1-3)GalNAc
# In short: as §1
# [9] = biological target: GalNAc(a1-3)GalNAc(a1-3)Gal(a1-4)Gal(b1-4)GlcNAc
# In short: as §1
# [10] = biological target: GalNAc(a1-3)GalNAc(b1-3)Gal(a1-4)Gal(b1-4)Glc
# In short: as §1
# [11] = biological target: GalNAc(a1-3)GalNAc(b1-3)Gal(a1-4)Gal(b1-4)GlcNAc
# In short: as §1
# GalNAc(b1-3)Gal = biological target: GalNAc(b1-3)Gal
# In short: as §1
# [12] = biological target: GalNAc(b1-3)Gal(a1-4)Gal(b1-4)GlcNAc
# In short: as §1
# [13] = biological target: GalNAc(b1-3)Gal(a1-4)Gal(b1-4)GlcNAc(b1-3)Gal(b1-4)Glc
# In short: as §1
# [14] = biological target: GalNAc(b1-3)Gal(a1-6)Gal(b1-4)Glc
# In short: as §1
# GalNAc(b1-3)GalNAc = biological target: GalNAc(b1-3)GalNAc
# In short: as §1
# GalNAc(b1-4)Gal(b1-4)Glc = biological target: GalNAc(b1-4)Gal(b1-4)Glc
# In short: as §1
# GalNAc(b1-4)GlcNAc = biological target: GalNAc(b1-4)GlcNAc
# In short: as §1
binder,measurement,setting,value
B1,glycan array binding signal (z-score),[1],-0.176
same,glycan array binding signal (z-score),[2],-0.185
same,glycan array binding signal (z-score),[3],-0.181
same,glycan array binding signal (z-score),[4],-0.165
same,glycan array binding signal (z-score),[5],-0.181
same,glycan array binding signal (z-score),Gal(b1-6)Gal,-0.183
same,glycan array binding signal (z-score),Gal3S(b1-3)GalNAc,-0.172
same,glycan array binding signal (z-score),Gal3S(b1-3)GlcNAc,-0.172
same,glycan array binding signal (z-score),[6],-0.182
same,glycan array binding signal (z-score),Gal3S(b1-4)Glc,-0.183
same,glycan array binding signal (z-score),Gal3S(b1-4)Glc6S,-0.038
same,glycan array binding signal (z-score),Gal3S(b1-4)GlcNAc,-0.175
same,glycan array binding signal (z-score),Gal3S(b1-4)GlcNAc6S,-0.174
same,glycan array binding signal (z-score),[7],-0.187
same,glycan array binding signal (z-score),[8],-0.171
same,glycan array binding signal (z-score),Gal3S4S(b1-4)GlcNAc,-0.179
same,glycan array binding signal (z-score),Gal3S6S(b1-4)GlcNAc,-0.176
same,glycan array binding signal (z-score),Gal3S6S(b1-4)GlcNAc6S,-0.174
same,glycan array binding signal (z-score),Gal4S(b1-4)GlcNAc,-0.187
same,glycan array binding signal (z-score),Gal4S6S(b1-4)GlcNAc,-0.18
same,glycan array binding signal (z-score),Gal6S(b1-3)GlcNAc,-0.186
same,glycan array binding signal (z-score),Gal6S(b1-3)GlcNAc6S,-0.169
same,glycan array binding signal (z-score),Gal6S(b1-4)Glc,-0.184
same,glycan array binding signal (z-score),Gal6S(b1-4)Glc6S,-0.18
same,glycan array binding signal (z-score),Gal6S(b1-4)GlcNAc,-0.188
same,glycan array binding signal (z-score),Gal6S(b1-4)GlcNAc6S,-0.172
same,glycan array binding signal (z-score),GalNAc(a1-3)Gal,-0.179
same,glycan array binding signal (z-score),GalNAc(a1-3)GalNAc,-0.182
same,glycan array binding signal (z-score),[9],-0.184
same,glycan array binding signal (z-score),[10],-0.187
same,glycan array binding signal (z-score),[11],-0.173
same,glycan array binding signal (z-score),GalNAc(b1-3)Gal,-0.18
same,glycan array binding signal (z-score),[12],-0.179
same,glycan array binding signal (z-score),[13],-0.167
same,glycan array binding signal (z-score),[14],-0.175
same,glycan array binding signal (z-score),GalNAc(b1-3)GalNAc,-0.174
same,glycan array binding signal (z-score),GalNAc(b1-4)Gal(b1-4)Glc,-0.17
same,glycan array binding signal (z-score),GalNAc(b1-4)GlcNAc,-0.009
